# From paper PMC4336329 (PLoS ONE, 2015)
# The campaign covered roughly 310,000 compounds. About 14,000 (4.5%) showed an effect of 50% or more. Effects have a minus sign here. Some of the results follow.
# Target: human ether-à-go-go-related gene (hERG) potassium channel (human, UniProt Q12809)
# Experiment: primary screen, population patch clamp on CHO cells stably expressing hERG
# 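Further: peak tail current of the secondary pulse compared with the same well before compound.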
# Chain of human ether-à-go-go-related gene (hERG) potassium channel (Q12809 whole entry, looked up): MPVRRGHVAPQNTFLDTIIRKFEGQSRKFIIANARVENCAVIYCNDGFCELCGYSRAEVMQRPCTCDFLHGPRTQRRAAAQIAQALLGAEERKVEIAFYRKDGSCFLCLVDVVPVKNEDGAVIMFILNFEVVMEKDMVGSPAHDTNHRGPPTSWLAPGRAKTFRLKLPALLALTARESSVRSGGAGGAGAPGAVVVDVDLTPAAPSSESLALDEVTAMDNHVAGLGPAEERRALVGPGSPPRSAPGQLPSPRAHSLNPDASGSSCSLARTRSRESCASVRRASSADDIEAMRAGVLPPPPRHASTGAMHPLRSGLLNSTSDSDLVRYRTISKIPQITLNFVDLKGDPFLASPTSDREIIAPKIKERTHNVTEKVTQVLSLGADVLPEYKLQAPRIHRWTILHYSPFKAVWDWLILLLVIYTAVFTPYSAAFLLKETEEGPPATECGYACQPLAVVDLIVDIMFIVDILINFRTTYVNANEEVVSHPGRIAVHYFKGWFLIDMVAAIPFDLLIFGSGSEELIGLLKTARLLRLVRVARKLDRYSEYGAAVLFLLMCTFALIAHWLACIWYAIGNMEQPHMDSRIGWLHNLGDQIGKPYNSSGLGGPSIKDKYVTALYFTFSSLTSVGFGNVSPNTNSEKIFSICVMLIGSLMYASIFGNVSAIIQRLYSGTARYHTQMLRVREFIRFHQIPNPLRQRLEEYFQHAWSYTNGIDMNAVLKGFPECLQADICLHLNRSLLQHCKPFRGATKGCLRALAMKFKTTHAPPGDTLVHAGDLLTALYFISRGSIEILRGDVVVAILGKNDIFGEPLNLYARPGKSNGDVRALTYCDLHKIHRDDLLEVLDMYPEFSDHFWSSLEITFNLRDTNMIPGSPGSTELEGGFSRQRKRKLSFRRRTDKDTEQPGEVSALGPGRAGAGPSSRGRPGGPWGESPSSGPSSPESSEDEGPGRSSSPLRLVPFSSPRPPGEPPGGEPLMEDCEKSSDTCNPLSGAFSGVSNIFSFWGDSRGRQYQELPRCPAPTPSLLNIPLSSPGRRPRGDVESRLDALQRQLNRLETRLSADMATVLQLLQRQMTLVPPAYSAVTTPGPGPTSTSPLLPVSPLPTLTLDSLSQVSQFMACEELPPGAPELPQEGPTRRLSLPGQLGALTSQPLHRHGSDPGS
row,SMILES,"hERG current change (%, negative = inhibition) at 10uM"
1,COc1ccc(C(=O)NCc2csc(C)n2)cc1OC1CCN(C(C)=O)CC1,15.3%
2,COc1ccc(S(=O)(=O)Cc2ccc(C(=O)N3CCN(c4cc(Cl)ccc4C)CC3)o2)cc1,9.01%
3,CCn1c(O)c(/C=C/C=C/C=Nc2ccccc2)sc1=S,2.74%
4,Cc1cc(C)cc(C(=O)N(C)C2CCCN(Cc3ccccc3F)C2)c1 (centres unmarked),-13%
5,CC(=O)Oc1ccc(N(C(C)=O)S(=O)(=O)c2cc([N+](=O)[O-])ccc2C)cc1,18.5%
6,CCOc1ccc(C(=O)NNC(=O)CCNC(=O)c2ccc(Br)cc2)cc1OC,2.32%
7,Cc1cc(=O)[nH]c(SCC(=O)NCCC2=CCCCC2)n1,28.2%
8,COc1ccc(OC)c(S(=O)(=O)Nc2ccc(F)cc2)c1,-8.86%
9,COc1ccc(/C=N/NC(=O)c2ccc3c(c2)OCO3)cc1,18.3%
10,CC1=C(C(=O)OC(C)C)C(c2ccc(F)cc2)NC(=O)N1 (centres unmarked),-5.4%
11,O=C(Nc1nccs1)c1ncc(Cl)c(Cl)c1Cl,17.7%
12,O=C(NNC(=S)Nc1ccc(F)c(Cl)c1)c1ccccc1Br,33.4%
13,CCOC(=O)CSCC(=O)Nc1c(C(=O)C2CC2)oc2ccccc12,-43.3%
14,O=S(=O)(c1ccccc1)N1CCc2ccccc21,1.24%
15,COc1ccc(NC(=O)COc2ccc(Br)cc2)c(OC)c1,4.86%
16,Cc1ccccc1-n1c(O)cc(=O)[nH]c1=S,10.7%
17,CC(NS(=O)(=O)c1ccc2c(c1)C(=O)c1cc(S(=O)(=O)NC(C)C(=O)O)ccc1-2)C(=O)O (centres unmarked),18.6%
18,O=C(Cc1cccs1)Nc1ccc(Cl)cc1,-11.1%
19,Cc1nc2nc(SCC(=O)N3CCC4(CC3)OCCO4)nn2c(C)c1Cc1ccccc1,-24.9%
20,Cc1onc(-c2ccccc2)c1C(=O)Nc1nnc(-c2ccncc2)s1,-4.28%
21,COC(=O)c1nn(-c2ccccc2)c(-c2ccccc2)c1C(=O)c1ccccc1,-4.63%
22,COc1ccc(CNC(=O)c2cc(C(C)=O)c[nH]2)cc1,4.25%

row,SMILES,"hERG current change (%, negative = inhibition) at 10uM"
1,Cc1cc(Cl)ccc1N=C1N=C(N)c2ccccc21,-17.5%
2,CC(C)(C)N(Cc1ccccc1)C(=O)c1cc2ccccc2o1,8.27%
3,O=C(CSc1ccc(Cl)cc1Cl)N1CCC(c2nc3ccccc3s2)CC1,-14.5%
4,CCN(CC)C(=O)CSc1nnc(CNc2ccc(F)cc2)n1-c1ccccc1,-0.688%
5,Cc1ccccc1N1CCN(S(=O)(=O)c2cccs2)CC1,-6.39%
6,CCOc1ccc(C(=O)NCC(=O)OCC(=O)Nc2ccccc2OC)cc1,-18.1%
7,COc1ccccc1C(=O)N/N=C(\C)CC(=O)Nc1ccc2c(c1)OCCO2,11.6%
8,O=C(COC(=O)c1ccccc1SCC(=O)NC1CCS(=O)(=O)C1)NC1CCS(=O)(=O)C1 (centres unmarked),18.7%
9,O=C(COc1ccc(Cl)cc1Cl)Nc1ccc(S(=O)(=O)NC2=NCCCCC2)cc1,-17%
10,COc1cc2c(cc1NC(=O)COC(=O)CNC(=O)c1ccccc1)oc1ccccc12,20.2%
11,COc1ccc([N+](=O)[O-])cc1NC(=O)CC1SC(=Nc2cccc(C)c2C)N(/N=C(\C)c2ccc(C)cc2)C1=O (centres unmarked),5.95%
12,O=C(c1ccc(S(=O)(=O)N2CCCC2)cc1)N1CCN(c2ccccc2)CC1,-7.94%
13,Cc1ccc(C(=O)COC(=O)c2ccc3c(c2)C(=O)N(c2cccc4ncccc24)C3=O)cc1,20.2%
14,COC(=O)c1ccsc1NC(=O)CN1CCN(c2ccc(F)cc2)CC1,-1.13%
15,COc1ccccc1N1CCN(C(=O)c2ccccc2N(C)S(=O)(=O)c2ccc(C)cc2)CC1,-13%
16,COc1ccc(C2=NN(C(C#N)c3ccc(OC)cc3)C(c3ccccc3)C2)cc1 (centres unmarked),-4.73%
17,COc1ccc(-c2cc(C(=O)NCC(c3ccco3)N(C)C)c3ccccc3n2)cc1OC (centres unmarked),-14.5%
18,CCN1CCc2c(C#N)c(N3CCCCC3)nc(NCc3ccccc3)c2C1,-39.8%
19,O=C(NCC(=O)N1CCC2(CC1)NCCc1[nH]cnc12)c1ccc(F)cc1,14.9%
20,O=C(CCCn1c(=O)c2sccc2n(Cc2cc(=O)n3ccccc3n2)c1=O)NCc1ccco1,-3.96%
21,CCOC(=O)Cn1c(=NC(=O)c2sc3ccccc3c2Cl)sc2cc(S(N)(=O)=O)ccc21,4.82%
22,CCOc1cc(S(=O)(=O)N2CCCCCC2)ccc1F,-35%

row,SMILES,"hERG current change (%, negative = inhibition) at 10uM"
1,Cn1c(CNC(=O)c2ccc(F)cc2)cc2ccccc21,3.45%
2,O=C(c1ccc(COc2ccc3ccccc3c2)o1)N1N=C(C(F)F)CC1(O)C(F)F (centres unmarked),-2.62%
3,CN1N=C(c2ccc(Cl)cc2)CC(c2ccc(Cl)cc2)C1=O (centres unmarked),-2.95%
4,CCCCNC(=O)c1ccc2c(=O)n(CCCOCC)c(=S)[nH]c2c1,-12.4%
5,CCC(C)NC(=O)C1CCN(S(=O)(=O)N2CCOCC2)CC1 (centres unmarked),22.8%
6,Cc1ccc(C(=O)NC2CC3CCC(C2)N3Cc2ccco2)cc1 (centres unmarked),-46.5%
7,CCCCn1nc(C(=O)OCC(=O)Nc2sccc2C(N)=O)c2ccccc2c1=O,-15.8%
8,COC(=O)[C@@H](NC(=O)N1CCC(Cc2ccccc2)CC1)C(C)C,-1.62%
9,CC(=O)N(c1ccc2oc(=O)sc2c1)S(=O)(=O)c1ccc(C(=O)O)cc1,10.1%
10,NC(=O)c1ccc(NC(=O)COC(=O)c2ccc(Br)o2)cc1,-13.4%
11,COc1ccc(-c2cn(Cc3ccc(C(N)=O)cc3)c(-c3ccncc3)n2)cc1,-60.1%
12,COc1ccc(C(=O)N2CCCC(Nc3ccc(C)c(C)c3)C2)c(OC)n1 (centres unmarked),-17.7%
13,CC(C)c1ccc(NC(=S)Nc2ccc3[nH]c(=O)[nH]c3c2)cc1,7.59%
14,Cc1nn(CC(=O)O)c(C)c1NC(=O)c1cccs1,21.6%
15,O=C(OCC(=O)N1CCCCCC1)c1ccc(S(=O)(=O)N2CCOCC2)cc1,0.238%
16,Cc1ccc(NC(=O)Nc2ccccc2C(N)=O)cc1,15.6%
17,Cc1cccc(OCC(=O)NCC(=O)N/N=C/c2cc(Br)ccc2OCc2ccccc2)c1,7.04%
18,COc1ccccc1-c1noc(CCC(=O)NC2CCCCC2)n1,6.96%
19,O=C1Nc2ccc(S(=O)(=O)N3CCCCCC3)c3cccc1c23,9.17%
20,O=C(NCCN1CCOCC1)c1ccc(Cl)c(S(=O)(=O)N2CCCCC2)c1,-58.3%
21,CCC1(O)c2ccccc2-c2ncccc21 (centres unmarked),4.06%
22,COC(=O)Cc1ccc(NC(=S)N2CCN(C(=O)C3CCCO3)CC2)cc1 (centres unmarked),8.34%

row,SMILES,"hERG current change (%, negative = inhibition) at 10uM"
1,O=C(NCC(c1ccco1)N1CCCC1)c1ccc(S(=O)(=O)Nc2ccccc2F)cc1 (centres unmarked),-8.56%
2,Cc1ccc(N(CN2CCCC2=O)C(=O)c2ccc(C)c(C)c2)cc1,-8.68%
3,COc1cccc(-c2cc(C(=O)N3CCN(Cc4ccccc4)CC3)no2)c1,-15.7%
4,CC(=O)C1=C(C)NC(=O)NC1c1ccccc1OCC(=O)NCCc1ccccc1 (centres unmarked),-6.63%
5,COC(=O)CS(=O)(=O)c1ccsc1C(=O)Nc1ccc(F)c(F)c1,12.9%
6,CCOC(=O)c1c(NC(=O)CN2C(=O)NC3(CCC(C)CC3)C2=O)sc(C(=O)N(C)C)c1C (centres unmarked),-36.7%
7,COc1cccc(OC)c1C(=O)Nc1nc2ccc([N+](=O)[O-])cc2s1,18.5%
8,Cc1cccc(-c2noc(-c3ccc4c(c3)OCO4)n2)c1,7.53%
9,CCCC(=O)Nc1ccc(N2CCN(C(=O)CCC)CC2)cc1,-16.5%
10,Cl.O=S1(=O)CCC(NC2CCCC2)C1 (centres unmarked),-44.2%
11,c1ccc(-c2nc3nc4ccccc4nc3n2CC2CCCO2)cc1 (centres unmarked),-1.81%
12,COc1cc(/C=C/c2ccc3cccc([N+](=O)[O-])c3n2)ccc1OCC#N,1.18%
13,O=C(COc1ccc2c3c(c(=O)oc2c1)CCC3)c1ccc2c(c1)OCO2,-5.8%
14,CCOC(=O)C1CCN(C(=O)c2cccnc2Oc2ccccc2)CC1,2.49%
15,COc1ccc(OC)c(Cc2nnc(CCC(=O)NCc3ccc(C)s3)o2)c1,-5.32%
16,Cc1ccc(C(O)(COC(=O)C(C)C)COC(=O)C(C)C)c(O)c1,3.76%
17,CCOc1cc(-c2sc(Nc3ccc(CC)cc3)n[n+]2-c2ccccc2)ccc1OC.[Cl-],-78.7%
18,Cc1cccc(NC(=O)CSc2ccc(-c3cccs3)nn2)c1C,-2.04%
19,Cn1ncc(C(=O)Nc2ccc(Cl)cc2)c1C(F)(F)F,-12%
20,CC12CCC(=O)N1C(C(=O)Nc1ccccc1N1CCCCC1)CS2 (centres unmarked),-15.9%
